According to the supplement of paper PMC10126150:
Sequences with one replicate were seen in a single cluster, so their values are uncertain.

System: ATP
Test: switch fluorescence ratio, 500 uM ATP over buffer (Cy3 cluster intensity, sum of 5 cycles each) (fold (ratio)); higher = stronger signal-on switching upon ATP binding; sequences stand for … in TCGTCGGCAGCGTCAGATGTGTATAAGAGACAGTTTTTTTTTTTTTTTTTTTTTTTTT…TC
Conditions: aptamer strand: ATP DNA aptamer (quencher-CACCTGGGGGAGTATTGCGGAGGAAGG + anchor), 100 nM annealed; ATP concentration: 500 uM; one replicate
Method in brief: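 Cy3-labelled switching-strand clusters on a modified Illumina MiSeq flow-cell were annealed to 100 nM quencher-labelled ATP aptamer and imaged first in selection buffer, then after 15 min with 500 uM ATP at 22 °C. NaOH stripping and re-annealing separated each of five buffer/ATP cycles, and clusters outside 100-1000 RFU were excluded. The fluorescence ratio sums target-cycle Cy3 intensity over buffer-cycle Cy3 intensity per cluster and averages it per switch-domain sequence.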
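Further: ATP exposure 15 min at 22 °C before imaging.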

| Sequence | switch fluorescence ratio |
| --- | --- |
| CATAGGCGTT | 0.94 |
| AGCGGTCTTG | 1.02 |
| ATTCCAGACA | 0.978 |
| CGCTCTCGAA | 0.94 |
| CGCTTATGTA | 0.993 |
| TAAGGGTAGT | 1.02 |
| GGTACACGCA | 1.1 |
| GCGCACCGAA | 1.04 |
| GAGGTACAAG | 1.06 |
| AAGTAGGAGA | 1.02 |
| TGAGAATTCG | 0.989 |
| AAAAAGGGGC | 1 |
| AATGGCCGGT | 0.988 |
| TGACCGGGTG | 1.63 |
| TATCCATTCT | 1 |
| TGTTCTAATG | 1.01 |
| TCTATGTGAA | 1 |
| CTCAGCAGCG | 1.26 |
| ATATTGCAAT | 0.972 |
| TCTAAGTTCT | 0.979 |
| CGTTGAAACG | 0.977 |
| CGGACAGATT | 1 |
| AGGGCGTACC | 1.01 |
| CTGCCGGTG | 1.02 |
| ACCAAACATT | 1.08 |
| GAACTTTT | 0.992 |

| Sequence | switch fluorescence ratio |
| --- | --- |
| GGCCTACCTG | 1.06 |
| CAACTCAAGA | 1.08 |
| GGACTAACAG | 0.881 |
| GGACGGCCTT | 1.03 |
| ATTATAACTT | 1.01 |
| CCGTAGGCGG | 0.966 |
| GAACTTCGGC | 1.03 |
| TCGAACGTGC | 1.56 |
| CCTTTGCCTC | 2.17 |
| ACCCTGAGGT | 1.07 |
| CGATTACGGG | 1.09 |
| GTCCTTCCGG | 1.57 |
| TACCTTACGC | 1.45 |
| AGGCTTGCAG | 0.964 |
| AATTGGTGCC | 0.976 |
| TGCGAGATCG | 1.02 |
| CCGAACGGTA | 4.02 |
| AATGGAGTGC | 0.987 |
| CACGCTATCG | 1.12 |
| CCTAATCA | 1.06 |
| CACGAGGGAC | 0.966 |
| CAGGGCGTGC | 1.05 |
| TACCGGGGAA | 0.982 |
| AACTTGGATC | 1.03 |
| AATTAAATGA | 0.96 |
| TGGATCACTC | 0.991 |

| Sequence | switch fluorescence ratio |
| --- | --- |
| GAAGTGCGTC | 0.968 |
| TGTGAATTTT | 1.03 |
| CATTTGGCA | 0.995 |
| GAGGGACCAG | 0.976 |
| AAAGTCGCCT | 1.02 |
| AAAGGGTCTT | 0.995 |
| ATGTTGAAGA | 0.961 |
| GAAAATCAGG | 0.996 |
| AGGTTGCTTT | 0.951 |
| ATCCAACGG | 1.09 |
| TATCTAGTAA | 1.04 |
| GTATTCACCC | 1.02 |
| AGTTGGGTAC | 0.995 |
| GTGGGAAAAG | 0.964 |
| TAGTACCCGA | 0.967 |
| CGAAATGTAT | 0.978 |
| CCACTATCAT | 1 |
| TTTCCGTTAG | 1.05 |
| CATCTAGAAT | 0.99 |
| GCTTAATGAA | 0.964 |
| CGGTCGATAA | 1.37 |
| AACAGTAGTG | 1.06 |
| GGTTCCGCCT | 1.08 |
| GGGAGGACAG | 1.01 |
| ATCGGAG | 1.05 |
| AGAATGAATG | 0.973 |

| Sequence | switch fluorescence ratio |
| --- | --- |
| GCTTTATTGT | 1.06 |
| ATACGCCTCG | 0.999 |
| TGATGCGG | 0.998 |
| GGGTGATAAA | 0.985 |
| GGAATATGGG | 0.993 |
| GGAAAATCGT | 1.03 |
| AGTTCGTGA | 0.968 |
| CCTGGTGGA | 1.07 |
| TAGGCAGCTA | 0.979 |
| GGAAACCAGT | 1.01 |
| TCTCGGCCTT | 1.08 |
| ACGATTATTG | 1.02 |
| GGTGACCATT | 0.986 |
| TATCCTCACT | 1.04 |
| CGATGTAGCT | 1.01 |
| ATCAATTATG | 1.04 |
| ATTGCTATGT | 0.958 |
| CATGTGTACC | 1 |
| GCCAGGGGTC | 0.996 |
| GTCGGGGTCG | 0.995 |
| GTTCTATCGA | 1.02 |
| ACTATGAATA | 0.993 |
| TATGACGGTC | 0.903 |
| TCCGGAGGTT | 1.16 |
| AATCTTACGG | 1.05 |
| TAGATAC | 1.44 |

| Sequence | switch fluorescence ratio |
| --- | --- |
| CAGTCAGGTG | 4.28 |
| TATTGAGAT | 0.974 |
| CATAGAAGGA | 1.01 |
| AAACTCATTT | 1.02 |
| GTGGCTTATC | 0.988 |
| GATTATGGGA | 0.987 |
| TGCATAGGCG | 1.06 |
| CCTGGTCCAC | 0.947 |
| TGGAAGCGGT | 0.981 |
| AATGCGTCGA | 1.01 |
| AGTCTAGCTT | 0.958 |
| TTTTGTTCT | 1.01 |
| GAAGGAGGAA | 0.988 |
| AGGTTGAGCA | 0.972 |
| TTAATTGCTA | 1.03 |
| GAGGATAGCA | 1.03 |
| TATTACCAAC | 1.13 |
| CCAACCGGAC | 1.58 |
| AATTTTTTAG | 0.928 |
| CCGTCTTCAC | 1.03 |
| TCCTCCTGGT | 1.61 |
| TCGAAGACCA | 1.03 |
| GCAATACGCT | 3.14 |
| CGAACGGGCG | 0.97 |
| TCAGCACGA | 1.04 |
| TCAGTGGTAT | 0.955 |

| Sequence | switch fluorescence ratio |
| --- | --- |
| TTAATCGCTA | 1.04 |
| GACTGCGGTG | 0.993 |
| GCCAACGCTA | 2.12 |
| TTTGATCTGA | 1.03 |
| CGGTGACAGT | 0.985 |
| TACATCGAGT | 0.998 |
| TTCAACGCGT | 1.01 |
| AGATGGGTTA | 0.992 |
| TTGGTAGCCA | 1.01 |
| ACCGTCTACT | 1.08 |
| AATTAGAGGT | 0.95 |
| TTTAGAGTCG | 1.02 |
| GGAGATGTTT | 1.02 |
| TAATAGTTAG | 0.973 |
| TAGATCCCC | 1.01 |
| TAGGGTAGCA | 1 |
| TTGTTTATCC | 1 |
| CCCAGGCGG | 1.7 |
| ACTTAGTGCG | 1.03 |
| TAGAGATGCG | 0.978 |
| AATTTTGATT | 0.977 |
| TTAATTTCGC | 1.01 |
| CGCCCCAGAG | 2.82 |
| CGGCCCTAGA | 1.02 |
| AGCCGGCTGT | 1.01 |
| TTGCGTCGGA | 0.988 |

| Sequence | switch fluorescence ratio |
| --- | --- |
| GCAGCCCCGC | 1.01 |
| TGGAACATTA | 1.07 |
| TTACCTGAAG | 1.11 |
| CAAATTCCGG | 0.978 |
| GGGAAACATA | 1.01 |
| TTGGTCTG | 0.989 |
| ACTTGTTACC | 1.02 |
| TTCAGTAGCT | 1.05 |
| TTACGCTTT | 1.04 |
| AATTCAGAGA | 0.987 |
| GCCGTACGCG | 1.03 |
| CTCCTTAGTG | 0.956 |
| GCGGATGTGG | 0.945 |
| TTTTCTCCCT | 1.05 |
| ATACGGGCTG | 1.04 |
| TGGAAGTCAT | 1 |
| AAATCAACCA | 0.988 |
| GTGCTAGCAC | 1.05 |
| TTCTTGGGT | 0.98 |
| TTGAATCTTC | 0.998 |
| TCTACCGTGA | 1.31 |
| TTTATTGTTC | 1.05 |
| AGGTGCGTCC | 1.06 |
| CGGTTGGA | 1.02 |
| TACAATTAAG | 1.01 |
| CTGATTTCAT | 0.985 |

| Sequence | switch fluorescence ratio |
| --- | --- |
| GGCGCGGATT | 0.972 |
| ATAGGTAAAT | 0.983 |
| TATTCGGTAA | 0.963 |
| TGTCAGGTTT | 0.979 |
| GTGGTTTATT | 0.983 |
| ACTTGAGTAT | 0.975 |
| TTCGTTTGGA | 1 |
| TTTTTACC | 1.01 |
| CTGAACAAAT | 1.03 |
| AAATTCGTAG | 0.942 |
| ACTAGGAGTA | 0.967 |
| TCCTTCCATC | 2.22 |
| AAGTGATA | 1.01 |
| ACTCTGCCCT | 1.36 |
| GGACGCAGCC | 1.5 |
| CGCTTGGTCC | 1.31 |
| TTTAACGGTT | 0.985 |
| TTCATCTTAG | 0.943 |
| GTCACATATG | 0.943 |
